In ChEMBL document CHEMBL1157539, “Thousands of chemical starting points for antimalarial lead identification” (Nature, 2010):
In all, about 13,000 compounds were measured (“IFI”: median about 4, highest 2% from about 17 on). This is one part of the list.

Experiment: GSK_TCMDC: Inhibition Frequency Index (IFI). The number of non-kinase HTS assays where a compound showed > 50 % inhibition, expressed as a percentage of the number of such assays in which the compound was tested (-0 is zero)
Format: functional
For `COc1ccc(NC(=O)N2CCc3ccc(OCCN(C(C)C)C(C)C)cc32)cc1C(F)(F)F`, the IFI was 1.46%. For `FC(F)(F)c1ccc2[nH]c(-c3ccc(-c4ccc(CNCc5ccccc5)cc4)cc3)nc2c1`, the IFI was 14.4%. In the case of `COc1cccc(NC(=O)NC2CCN(c3ccnc(Nc4cc(OC)c(OC)c(OC)c4)n3)C2)c1` (centres undefined), the IFI was 6.06%. With `COc1cc(CN2CCC(NC(=O)[C@H](Cc3ccccc3)NC(=O)Nc3ccc(Oc4ccccc4)cc3)C2)ccc1O` (some centres undefined) the IFI was 3.82%. Work on `Cc1noc(C)c1-c1cccc(CNCc2cccc(-c3ccc(-c4nc5cccc(C)c5[nH]4)s3)c2)c1` yielded an IFI of 4.72%. Work on `Cc1cccc2nc(-c3cccc(-c4ccc(NC(=O)c5cccnc5)cc4)c3)[nH]c12` yielded an IFI of 7.27%. `Cc1cc(N[C@@H](CC(C)C)C(=O)NCCOc2ccccc2)nc(Nc2ccccc2)n1` showed an IFI of 4.65%. For `Cc1nc2nc(N)nc(N)c2c(C)c1Cc1cccs1`, the IFI was 1.46%. With `Cc1ccc2c(c1)C1(CC(=O)N(CCc3scnc3C)C1=O)C(=O)N2Cc1ccccc1` (centres undefined) the IFI was 0.83%. `OC1CCC(Nc2ccc3ncc(-c4ccc5ccccc5c4)n3n2)CC1` (centres undefined) showed an IFI of 5.97%. Compound `NCc1ccc(-c2cccc(CNC3CCN(Cc4ccccc4)CC3)c2)cc1` has an IFI of 3.6%. Work on `COc1cc(Nc2ncc3c(C)nc(-c4cccc(Nc5ccc(CN6CCS(=O)(=O)CC6)cc5)c4)n3n2)cc(OC)c1OC` yielded an IFI of 4.9%. Compound `O=C(N/C(=C/c1cccc([N+](=O)[O-])c1)c1nc2ccccc2[nH]1)c1cccc(Br)c1` has an IFI of 0.72%. In the case of `COc1ccc2c(CNCCCCCCNCc3c(OC)ccc4cc(OC)ccc34)c(OC)ccc2c1`, the IFI was 7.38%. `CN(CCCCNC(=O)c1ccc(-c2ccccc2)cc1)C1CCc2c(O)cccc2C1` (centres undefined) showed an IFI of 9.56%. Compound `Cc1noc(-c2ccc3c(c2)CCN(CCC2CCC(NC(=O)/C=C/c4cccc(Cl)c4)CC2)CC3)n1` (centres undefined) has an IFI of 2.13%. Work on `CCOc1ccc2ccccc2c1C(=O)Nc1cc(C)nn1-c1nc(C)cc(=O)[nH]1` yielded an IFI of 13%. For `COc1ccc(CCNC(=O)c2cc3c(=O)n4cccc(C)c4nc3n(C)c2=N)cc1`, the IFI was 1.67%. Compound `O=C(NCC1CCC(C(=O)NCc2cccc3ccccc23)CC1)c1ccc(O)c(-c2ccc(Cl)c(Cl)c2)c1` (centres undefined) has an IFI of 0.76%. `COc1cc(NC(=O)c2cc([N+](=O)[O-])ccc2NC(=O)CNC2CCCCC2C)cc(OC)c1` (centres undefined) showed an IFI of 3.7%. Compound `O=C(/C=C/c1ccc(Cl)cc1)NCCCCCN1CCCN(C(=O)Nc2ccc(Cl)c(C(F)(F)F)c2)CC1` has an IFI of 14.3%. `COc1ccc(-c2cccc(NC(=O)c3cccc(Cl)c3)c2)cc1CN1CCC(O)CC1` gave an IFI of 4.95%. With `CC[C@H](C)CNC(=O)c1cncc(-c2ccc(CNCC3CNCCCO3)cc2)c1` (some centres undefined) the IFI was 0%. Compound `COc1cccc(C2CCCN(CCCCNC(=O)c3ccc(NC(=O)c4ccc(Cl)cc4)cc3)C2)c1` (centres undefined) has an IFI of 6.36%.
